In patent US20240052051A1:

Target: monkey (cyno) transferrin receptor ectodomain with C-terminal myc-myc-hexahistidine tag (REGN2054) (monkey (cyno, Macaca fascicularis)) (UniProt H9EXL1)
Test: SPR Biacore, mAb captured by anti-hFc, 100 nM mfTfR-mmh, 25C

- 100 nM Ag Bound (RU): 11 RU
B1: 12839B anti-human TfR IgG1 monoclonal antibody (antibody, V domains shown)
VH: QVQLVESGGGVVQPGRSLRLSCAASGFPFSNYVMYWVRQAPGKGLEWVALIFFDGKKNYHADSVKGRFTITRDNSKNMLYLQMNSLRPEDAAVYYCAKIHCPNGVCYKGYYGMDVWGQGTTVTVSS
VL: [sequence of about 100 residues not given]

- 100 nM Ag Bound (RU): 13 RU
B2: 12845B anti-human TfR IgG1 monoclonal antibody (antibody, V domains shown)
VH: EVQLVESGGGLVQPGGSLRLSCAASGFTVSNYEMNWVRQAPGKGLEWVSYISSSTSNIYYADSVKGRFTISRDNAENSLYLQMNSLRVEDTAVYYCVRDGIVVVPVGRGYYYYGLDVWGQGTTVTVSS
VL: [sequence of about 100 residues not given]

One block for each binder: values may come before it.
